{
  "source": "PubChem BioAssay AID624296",
  "about": "(National Center for Advancing Translational Sciences (NCATS), 2012)",
  "note": "In all, about 350,000 compounds went through this assay and about 9,900 (2.8%) were called active. Inconclusive results, whose numbers are uncertain, are shown with a selection of clear calls. Calls come from the whole dose curve; as a rule, active = well fitted activation curve with a large enough effect; inconclusive = small, poorly fitted or top-dose-only effect; inactive = no such curve, though single readings can be large or run the other way. Potencies of inconclusive entries are left out as doubtful fits. Potency is the fitted concentration of half-maximal effect; tags give direction and shape of the fitted curve.",
  "data": [
    {"assay": "A quantitative high throughput screen for small molecules that induce DNA re-replication in MCF 10a normal breast cells; note: nearly all actives have a fitted effect of over 50% in size; for activity, positive = re-replication: % of control where 0% means no effect.", "conditions": "MCF 10A DNA re-replication, Hoechst nuclear intensity, 48 h; activity, positive = re-replication: at 46.1 µM (top of the series)", "values": [
      {"smiles": "Cc1ccc(NC(=O)NCc2ccc3c(c2)OCO3)cc1C", "Potency": "inconclusive [activator, single point]"},
      {"smiles": "CCOc1ccc(Br)cc1-c1noc(-c2cccs2)n1", "Potency": "inconclusive [activator, single point]"},
      {"smiles": "CCN(CC)C(=O)CNc1ccc(C(F)(F)F)cc1[N+](=O)[O-]", "activity, positive = re-replication": "inactive: 3.66%"},
      {"smiles": "COc1ccccc1NC(=O)N(Cc1ccccc1)C1=NCC(C)S1", "note": "(centres undefined)", "Potency": "inconclusive [activator, single point]"},
      {"smiles": "O=C(Nc1c2c(nn1-c1ccc(Cl)cc1)CS(=O)(=O)C2)C1CC1", "activity, positive = re-replication": "inactive: -5.14%"},
      {"smiles": "COc1ccc(OC)c(NC(=O)C(=O)NNC(=O)COc2ccc(Br)cc2C)c1", "Potency": "inconclusive [activator, single point]"},
      {"smiles": "CCOC(=O)c1cc(C#N)c(Oc2ccc(F)cc2)nc1-c1ccccc1", "activity, positive = re-replication": "inactive: 12.7%"},
      {"smiles": "Cc1cccc(CNC(=O)c2ccc(NC(=O)C3=CSCCO3)cc2)c1", "activity, positive = re-replication": "inactive: 5.97%"},
      {"smiles": "Oc1c(Cl)cc(Cl)cc1C=Nc1cc(C(F)(F)F)ccc1N1CCc2ccccc2C1", "Potency": "inconclusive [activator, single point]"},
      {"smiles": "CCSc1n[nH]c2nc3c(c(=O)n12)C1(CCCC1)Cc1ccccc1-3", "Potency": "inconclusive [activator, single point]"},
      {"smiles": "COC(=O)c1ccc(COC(=O)CNS(=O)(=O)c2ccc(C)cc2)cc1", "Potency": "inconclusive [activator, single point]"},
      {"smiles": "O=C(O)CC(c1ccc(Br)cc1)N1Cc2ccccc2C1=O", "note": "(centres undefined)", "activity, positive = re-replication": "inactive: 0.295%"},
      {"smiles": "CCOC(=O)Cc1nc2ccccc2[nH]1", "Potency": "active: 5.01 µM"},
      {"smiles": "O=C(COc1ccccc1)N1CCCC1", "activity, positive = re-replication": "inactive: -4%"},
      {"smiles": "CCOC(=O)c1c(C)n(C)c2cc(OCCN(CC)CC)ccc12", "activity, positive = re-replication": "inactive: 28.3%"},
      {"smiles": "Cc1ccc(NC(=O)COc2cccnc2[N+](=O)[O-])cc1S(=O)(=O)N1CCCCC1", "Potency": "inconclusive [activator, single point]"},
      {"smiles": "CCOC(=O)c1c(-c2ccccc2)csc1NC(=O)c1cccc(N2C(=O)CCC2=O)c1", "Potency": "inconclusive [activator, partial curve]"},
      {"smiles": "O=C(Nc1ccc(C(=O)N2CCOCC2)cc1)c1cc(-c2cccnc2)nc2ccc(Br)cc12", "activity, positive = re-replication": "inactive: -1.39%"},
      {"smiles": "CCN(CC)S(=O)(=O)c1cc([N+](=O)[O-])ccc1NNC(=O)Nc1ccc(Cl)c(Cl)c1", "Potency": "inconclusive [activator, full curve]"},
      {"smiles": "O=[N+]([O-])c1cc(S(=O)(=O)NCCN2CCOCC2)ccc1Sc1nnnn1-c1ccccc1", "Potency": "inconclusive [activator, single point]"},
      {"smiles": "CCCCNC(=O)Nc1ccc2c(c1)N(C)C(=O)c1ccccc1S2", "activity, positive = re-replication": "inactive: 18.3%"},
      {"smiles": "COc1ccc(NC(=O)Nc2ccc3c(c2)C(=O)N([C@H](C)CO)C[C@H](C)[C@@H](CN(C)C(=O)Nc2ccc(OC)cc2)O3)cc1", "Potency": "inconclusive [activator, single point]"},
      {"smiles": "CCCCn1ccnc1C(=O)c1cccc(S(=O)(=O)N2c3ccccc3CC2C)c1", "note": "(centres undefined)", "Potency": "inconclusive [activator, partial curve, poor fit]"},
      {"smiles": "CCCCC(=O)NC(c1ccco1)c1cc(Cl)c2cccnc2c1O", "note": "(centres undefined)", "activity, positive = re-replication": "inactive: 25.9%"},
      {"smiles": "CO/N=C/c1ccc(Sc2ccccc2)c([N+](=O)[O-])c1", "Potency": "inconclusive [activator, single point]"},
      {"smiles": "C=CCOc1ccccc1CN(CCc1ccccc1)C(=O)c1cccc(S(C)(=O)=O)c1", "Potency": "inconclusive [activator, single point]"},
      {"smiles": "COc1ccc(N(C)S(=O)(=O)c2ccc3c(c2)NC(=O)CO3)c(OC)c1", "activity, positive = re-replication": "inactive: 2.45%"},
      {"smiles": "COc1cc(C(=O)NCc2nnc(SCC(=O)NCCc3ccccc3)o2)cc(OC)c1OC", "activity, positive = re-replication": "inactive: 5.26%"},
      {"smiles": "COc1ccc(C)cc1NC(=O)c1cc2c(=O)n3ccccc3nc2n1C", "Potency": "inconclusive [activator, partial curve, poor fit]"},
      {"smiles": "COc1ccc(/C=N/Nc2cc(C)nc3ccc(OC)cc23)c(OC)c1", "Potency": "inconclusive [activator, single point]"},
      {"smiles": "CCOC(=O)N1CCN(CC(=O)Nc2nnc(C(F)(F)F)s2)CC1", "activity, positive = re-replication": "inactive: -0.179%"},
      {"smiles": "CCc1ccc(NC(=O)CSc2nc3cc(C(=O)OC)ccc3c(=O)n2CC2CCCO2)cc1", "note": "(centres undefined)", "Potency": "inconclusive [activator, single point]"},
      {"smiles": "COc1ccc(C(=O)C2CCCN(C(=O)Cn3cncn3)C2)cc1OC", "note": "(centres undefined)", "Potency": "inconclusive [activator, single point]"},
      {"smiles": "COc1ccc(NCc2ccccc2[N+](=O)[O-])cc1OC", "Potency": "inconclusive [activator, partial curve]"},
      {"smiles": "CCC(=O)c1ccc2c(c1)N(CCCN1CCN(CCO)CC1)c1ccccc1S2", "Potency": "active: 33.5 µM"},
      {"smiles": "COc1ccc(NC(=O)Cn2nnc(C(=O)NCc3ccco3)c2N)c(OC)c1", "Potency": "inconclusive [activator, single point]"},
      {"smiles": "O=[N+]([O-])c1ccc(O)c(CN2CCCCCC2)c1", "activity, positive = re-replication": "inactive: 1.29%"},
      {"smiles": "COc1ccc(CC2c3cc(OC)c(OC)cc3CC[N+]2(C)CCC(=O)OCCCCCOC(=O)CC[N+]2(C)CCc3cc(OC)c(OC)cc3C2Cc2ccc(OC)c(OC)c2)cc1OC", "note": "(centres undefined)", "Potency": "inconclusive [activator, single point]"},
      {"smiles": "O=C(CN1CCCCC1)Nc1ccc(C(F)(F)F)cc1Cl", "activity, positive = re-replication": "inactive: -11.7%"},
      {"smiles": "CCCOC(=O)c1c(NC(=O)/C=C/c2cnn(C)c2C)sc(C(=O)OCC)c1C", "Potency": "inconclusive [activator, partial curve, poor fit]"},
      {"smiles": "c1ccc(CCSc2nccn2-c2ccccc2)cc1", "activity, positive = re-replication": "inactive: 3.27%"},
      {"smiles": "Cc1ccc2[nH]c3c(NCc4ccccc4)ncnc3c2c1", "Potency": "inconclusive [activator, full curve]"},
      {"smiles": "O=C(O)CSCc1nc2cccnc2n1C1CCCCC1", "Potency": "inconclusive [activator, single point]"},
      {"smiles": "COc1ccc(NC(C#N)c2ccccc2OCc2ccccc2)cc1", "note": "(centres undefined)", "Potency": "inconclusive [activator, single point]"},
      {"smiles": "CCOC(=O)c1ccc(NC2Nc3cc(C)nn3S2)cc1", "note": "(centres undefined)", "Potency": "inconclusive [activator, single point]"},
      {"smiles": "CCCCN(CCCC)CCNC(=O)CNC(=O)c1cccs1", "activity, positive = re-replication": "inactive: 24.4%"},
      {"smiles": "COc1ccc(-c2csc(NC(=S)NC(=O)/C=C/c3ccco3)n2)cc1OC", "Potency": "active: 6.51 µM"},
      {"smiles": "O=C(NCc1ccco1)c1ccc(S(=O)(=O)N2CCCc3ccccc32)cc1", "Potency": "inconclusive [activator, single point]"},
      {"smiles": "O=S(=O)(Nc1ccc(Cl)cc1)c1ccc(N2CCOCC2)c(NC(=S)NCCN2CCOCC2)c1", "activity, positive = re-replication": "inactive: 25.8%"},
      {"smiles": "COc1ccc(-c2n(CC(=O)OC3CC(C)CCC3C(C)C)c3ccccc3[n+]2C)cc1", "note": "(centres undefined)", "Potency": "inconclusive [activator, full curve, poor fit]"},
      {"smiles": "COc1cccc(NC(=S)N2CCC(C(=O)c3ccc(F)cc3)CC2)c1", "Potency": "inconclusive [activator, full curve, poor fit]"},
      {"smiles": "CC(C)N(C(=O)[C@H]1CC(CC(=O)NCc2cccc(C(F)(F)F)c2)C(=O)N2CCc3c([nH]c4ccccc34)[C@]12C)C(C)C", "note": "(some centres undefined)", "Potency": "inconclusive [activator, single point]"},
      {"smiles": "Cc1ccc(OCCSCc2nnc(NC(=O)Nc3cccc(Cl)c3)s2)cc1", "Potency": "inconclusive [activator, partial curve]"},
      {"smiles": "Cc1ccc2c(CN3CCN(Cc4ccccc4)CC3)cc(=O)oc2c1C", "Potency": "inconclusive [activator, single point]"},
      {"smiles": "CC(=O)NC1=NN(C(C)=O)C(c2ccccc2)S1", "note": "(centres undefined)", "Potency": "inconclusive [activator, partial curve, poor fit]"},
      {"smiles": "Cc1nc(-c2cccc(NS(=O)(=O)c3ccccc3)c2)cs1", "Potency": "inconclusive [activator, single point]"},
      {"smiles": "Cc1ccc(N(C)S(=O)(=O)c2cccc(C(=O)N(C)Cc3cnn(-c4ccccc4)c3)c2)cc1", "Potency": "active: 20.6 µM"},
      {"smiles": "O=C1NC(=S)S/C1=C\\c1cccc([N+](=O)[O-])c1", "Potency": "active: 18.4 µM"},
      {"smiles": "CC12CN3CC(C)(CN(C1)C3c1ccc(F)cc1)C2", "note": "(centres undefined)", "Potency": "inconclusive [activator, full curve]"},
      {"smiles": "COc1ccc(CCNC(=O)c2cc(COc3c(F)cccc3F)on2)c(OC)c1", "activity, positive = re-replication": "inactive: -1.85%"},
      {"smiles": "CC1CCN(CCOc2cccc(Br)c2)CC1", "activity, positive = re-replication": "inactive: 10.7%"},
      {"smiles": "Cc1ccnc(NS(=O)(=O)c2ccc(NC(=O)c3ccc(Cl)cc3[N+](=O)[O-])cc2)n1", "Potency": "inconclusive [activator, single point]"},
      {"smiles": "O=C(COC(=O)COc1ccccc1[N+](=O)[O-])NC1CCCC1", "Potency": "inconclusive [activator, full curve, poor fit]"},
      {"smiles": "Cc1ccc(C(=O)Nc2cccc(-c3cn4ccccc4n3)c2)cc1", "Potency": "inconclusive [activator, single point]"},
      {"smiles": "CC1(C)CC(NC(=O)CCc2nnc(CCCCc3ccccc3)o2)CCO1", "note": "(centres undefined)", "activity, positive = re-replication": "inactive: -1.81%"},
      {"smiles": "O=C1C2C3C=CC(C4CC34)C2C(=O)N1/N=C/c1ccc(-c2ccc(Cl)cc2[N+](=O)[O-])o1", "note": "(centres undefined)", "Potency": "inconclusive [activator, full curve, poor fit]"},
      {"smiles": "NS(=O)(=O)c1ccc(CCNC(=O)Nc2ccc(Cl)c(Cl)c2)cc1", "Potency": "inconclusive [activator, partial curve]"},
      {"smiles": "O=C(COc1ccccc1Cl)NC(=S)Nc1ccccc1N1CCCC1", "Potency": "inconclusive [activator, single point]"},
      {"smiles": "COc1ccc(-c2cc(C3CCN(c4cc(Cl)nc(N)n4)CC3)[nH]n2)cc1", "Potency": "inconclusive [activator, single point]"}
    ]}
  ]
}
